Patent US9284335B2, “Substituted pyrido[3,2-e][1,2,4]triazolo[1,5-c]pyrimidines, pyrido[2,3-e][1,2,4]triazolo[1,5-c]pyrimidines and/or [1,2,4]triazolo[1,5-c]pteridines for treatment of central nervous system diseases and disorders” (DART NEUROSCIENCE (CAYMAN) LTD., priority 2012, dated 2016)

What follows are molecules tested against full-length recombinant NH-terminal GST tagged human PDE1b enzyme (Homo sapiens, UniProt Q01064) (assay: PDE1b inhibitory assay (IMAP TR-FRET)). Conditions: negative log of half-maximal molar inhibitory concentration; FAM-cAMP 200 nM; reported as bins; read-out: PDE1b (pEC50) (converted).
Format: biochemical
C[C@@H]1CN(Cc2cnc3c(c2)c2ncnn2c(=O)n3Cc2ccccc2SC(F)(F)F)C[C@H](C)O1 [Example 109, 9-(((2S,6R)-2,6-Dimethylmorpholino)methyl)-6-(2-((trifluoromethyl)thio)benzyl)pyrido[3,2-e][1,2,4]triazolo[1,5-c]pyrimidin-5(6H)-one] was tested, and the EC50 was > 10 µM. C[C@@H]1CN(Cc2cnc3c(c2)c2ncnn2c(=O)n3Cc2ccc(F)c(Cl)c2)C[C@H](C)O1 [Example 110] showed an EC50 of 0.1 to 1 µM. Work on C[C@@H]1CN(Cc2cnc3c(c2)c2ncnn2c(=O)n3Cc2ccc(Cl)c(Cl)c2)C[C@H](C)O1 [Example 111, 6-(3,4-Dichlorobenzyl)-9-(((2S,6R)-2,6-dimethylmorpholino)methyl)pyrido[3,2-e][1,2,4]triazolo[1,5-c]pyrimidin-5(6H)-one] yielded an EC50 of 0.1 to 1 µM. COc1ccc(Cn2c(=O)n3ncnc3c3cc(CN4C[C@@H](C)O[C@@H](C)C4)cnc32)c(Cl)c1 [Example 112] was tested, and the EC50 was 0.1 to 1 µM. In the case of C[C@@H]1CN(Cc2cnc3c(c2)c2ncnn2c(=O)n3Cc2ccccc2OC(F)F)C[C@H](C)O1 [Example 113], the EC50 was > 10 µM. C[C@@H]1CN(Cc2cnc3c(c2)c2ncnn2c(=O)n3Cc2ccc(Cl)c(F)c2)C[C@H](C)O1 [Example 114] showed an EC50 of 0.1 to 1 µM. In the case of C[C@@H]1CN(Cc2cnc3c(c2)c2ncnn2c(=O)n3Cc2cc(F)cc(Cl)c2)C[C@H](C)O1 [Example 115], the EC50 was 1 to 10 µM. In the case of C[C@@H]1CN(Cc2cnc3c(c2)c2ncnn2c(=O)n3Cc2ccc(N3CCCC3=O)cc2)C[C@H](C)O1 [Example 116, 9-(((2S,6R)-2,6-Dimethylmorpholino)methyl)-6-(4-(2-oxopyrrolidin-1-yl)benzyl)pyrido[3,2-e][1,2,4]triazolo[1,5-c]pyrimidin-5(6H)-one], the EC50 was > 10 µM. Molecule CCOc1ccc(Cn2c(=O)n3ncnc3c3cc(CN4C[C@@H](C)O[C@@H](C)C4)cnc32)cc1 [Example 117, 9-(((2S,6R)-2,6-Dimethylmorpholino)methyl)-6-(4-ethoxybenzyl)pyrido[3,2-e][1,2,4]triazolo[1,5-c]pyrimidin-5(6H)-one] has an EC50 of 0.1 to 1 µM. For C[C@@H]1CN(Cc2cnc3c(c2)c2ncnn2c(=O)n3Cc2ccc(F)c(F)c2)C[C@H](C)O1 [Example 118], the EC50 was 0.1 to 1 µM. CSc1ccc(Cn2c(=O)n3ncnc3c3cc(CN4C[C@@H](C)O[C@@H](C)C4)cnc32)cc1 [Example 119, 9-(((2S,6R)-2,6-Dimethylmorpholino)methyl)-6-(4-(methylthio)benzyl)pyrido[3,2-e][1,2,4]triazolo[1,5-c]pyrimidin-5(6H)-one] gave an EC50 of 0.1 to 1 µM. For C[C@@H]1CN(Cc2cnc3c(c2)c2ncnn2c(=O)n3Cc2ccc(S(C)(=O)=O)cc2Cl)C[C@H](C)O1 [Example 120, 6-(2-Chloro-4-(methylsulfonyl)benzyl)-9-(((2S,6R)-2,6-dimethylmorpholino)methyl)pyrido[3,2-e][1,2,4]triazolo[1,5-c]pyrimidin-5(6H)-one], the EC50 was > 10 µM. Work on COc1ccc(Cn2c(=O)n3ncnc3c3ccc(COc4ccccc4)nc32)cc1 [Example 121, 6-(4-Methoxybenzyl)-8-(phenoxymethyl)pyrido[3,2-e][1,2,4]triazolo[1,5-c]pyrimidin-5(6H)-one] yielded an EC50 of 0.1 to 1 µM. For COc1ccc(Cn2c(=O)n3ncnc3c3cc(CN4CCN(C(C)C)CC4)cnc32)c(F)c1F [Example 122, 6-(2,3-Difluoro-4-methoxybenzyl)-9-((4-isopropylpiperazin-1-yl)methyl)pyrido[3,2-e][1,2,4]triazolo[1,5-c]pyrimidin-5(6H)-one], the EC50 was 1 to 10 µM. With COc1ccc(Cn2c(=O)n3ncnc3c3cc(CN4CCCCC4)cnc32)c(F)c1F [Example 123, 6-(2,3-Difluoro-4-methoxybenzyl)-9-(piperidin-1-ylmethyl)pyrido[3,2-e][1,2,4]triazolo[1,5-c]pyrimidin-5(6H)-one] the EC50 was 1 to 10 µM. C[C@@H]1CN(Cc2cnc3c(c2)c2ncnn2c(=O)n3Cc2cc(F)c(F)cc2F)C[C@H](C)O1 [Example 124, 9-(((2S,6R)-2,6-Dimethylmorpholino)methyl)-6-(2,4,5-trifluorobenzyl)pyrido[3,2-e][1,2,4]triazolo[1,5-c]pyrimidin-5(6H)-one] gave an EC50 of 0.1 to 1 µM. CC(C)c1ccc(Cn2c(=O)n3ncnc3c3cc(CN4C[C@@H](C)O[C@@H](C)C4)cnc32)cc1 [Example 125, 9-(((2S,6R)-2,6-Dimethylmorpholino)methyl)-6-(4-isopropylbenzyl)pyrido[3,2-e][1,2,4]triazolo[1,5-c]pyrimidin-5(6H)-one] was tested, and the EC50 was 1 to 10 µM. In the case of C[C@@H]1CN(Cc2cnc3c(c2)c2ncnn2c(=O)n3Cc2ccc(OC(F)F)cc2)C[C@H](C)O1 [Example 126], the EC50 was 0.1 to 1 µM. With CCOc1c(F)cc(Cn2c(=O)n3ncnc3c3cc(CN4C[C@@H](C)O[C@@H](C)C4)cnc32)cc1F [Example 127, 9-(((2S,6R)-2,6-Dimethylmorpholino)methyl)-6-(4-ethoxy-3,5-difluorobenzyl)pyrido[3,2-e][1,2,4]triazolo[1,5-c]pyrimidin-5(6H)-one] the EC50 was 1 to 10 µM. For C#Cc1ccc(Cn2c(=O)n3ncnc3c3cc(CN4C[C@@H](C)O[C@@H](C)C4)cnc32)cc1 [Example 128, 9-(((2S,6R)-2,6-Dimethylmorpholino)methyl)-6-(4-ethynylbenzyl)pyrido[3,2-e][1,2,4]triazolo[1,5-c]pyrimidin-5(6H)-one], the EC50 was < 0.1 µM. C[C@@H]1CN(Cc2cnc3c(c2)c2ncnn2c(=O)n3Cc2ccc(I)cc2)C[C@H](C)O1 [Example 129, 9-(((2S,6R)-2,6-Dimethylmorpholino)methyl)-6-(4-iodobenzyl)pyrido[3,2-e][1,2,4]triazolo[1,5-c]pyrimidin-5(6H)-one] was tested, and the EC50 was 0.1 to 1 µM. COc1c(F)cc(Cn2c(=O)n3ncnc3c3cc(CN4C[C@@H](C)O[C@@H](C)C4)cnc32)cc1Cl [Example 131] gave an EC50 of 0.1 to 1 µM. Work on COc1ccc(Cn2c(=O)n3ncnc3c3cc(CN4C[C@@H](C)O[C@@H](C)C4)cnc32)cc1C [Example 132, 9-(((2S,6R)-2,6-Dimethylmorpholino)methyl)-6-(4-methoxy-3-methylbenzyl)pyrido[3,2-e][1,2,4]triazolo[1,5-c]pyrimidin-5(6H)-one] yielded an EC50 of 0.1 to 1 µM. COc1cccc(Cn2c(=O)n3ncnc3c3cc(CN4C[C@@H](C)O[C@@H](C)C4)cnc32)c1 [Example 133, 9-(((2S,6R)-2,6-Dimethylmorpholino)methyl)-6-(3-methoxybenzyl)pyrido[3,2-e][1,2,4]triazolo[1,5-c]pyrimidin-5(6H)-one] was tested, and the EC50 was 1 to 10 µM. Work on C[C@@H]1CN(Cc2cnc3c(c2)c2ncnn2c(=O)n3Cc2cc(F)ccc2F)C[C@H](C)O1 [Example 134] yielded an EC50 of 0.1 to 1 µM. C[C@@H]1CN(Cc2cnc3c(c2)c2ncnn2c(=O)n3Cc2ccc(F)cc2F)C[C@H](C)O1 [Example 135] was tested, and the EC50 was 0.1 to 1 µM. Molecule C[C@@H]1CN(Cc2cnc3c(c2)c2ncnn2c(=O)n3Cc2ccc(C(F)(F)F)cc2)C[C@H](C)O1 [Example 136] has an EC50 of 1 to 10 µM. For COc1cc(Cn2c(=O)n3ncnc3c3cc(CN4C[C@@H](C)O[C@@H](C)C4)cnc32)ccc1F [Example 137], the EC50 was > 10 µM. Cc1ccc(Cn2c(=O)n3ncnc3c3cc(CN4C[C@@H](C)O[C@@H](C)C4)cnc32)c(F)c1 [Example 138, 9-(((2R,6S)-2,6-Dimethylmorpholino)methyl)-6-(2-fluoro-4-methylbenzyl)pyrido[3,2-e][1,2,4]triazolo[1,5-c]pyrimidin-5(6H)-one] gave an EC50 of 0.1 to 1 µM. Work on C[C@@H]1CN(Cc2cnc3c(c2)c2ncnn2c(=O)n3Cc2cc(F)c(F)cc2Cl)C[C@H](C)O1 [Example 139] yielded an EC50 of 1 to 10 µM. C[C@@H]1CN(Cc2cnc3c(c2)c2ncnn2c(=O)n3Cc2ccc(F)c(Cl)c2F)C[C@H](C)O1 [Example 140] showed an EC50 of 0.1 to 1 µM. For C[C@@H]1CN(Cc2cnc3c(c2)c2ncnn2c(=O)n3Cc2ccc(Cl)cc2Cl)C[C@H](C)O1 [Example 142], the EC50 was 0.1 to 1 µM. Work on C[C@@H]1CN(Cc2cnc3c(c2)c2ncnn2c(=O)n3Cc2cc(F)c(Cl)cc2Cl)C[C@H](C)O1 [Example 143] yielded an EC50 of 1 to 10 µM. C[C@@H]1CN(Cc2cnc3c(c2)c2ncnn2c(=O)n3Cc2ccc(F)cc2Cl)C[C@H](C)O1 [Example 144] gave an EC50 of 1 to 10 µM. With C[C@@H]1CN(Cc2cnc3c(c2)c2ncnn2c(=O)n3Cc2ccc(Cl)cc2F)C[C@H](C)O1 [Example 145, 6-(4-Chloro-2-fluorobenzyl)-9-(((2R,6S)-2,6-dimethylmorpholino)methyl)pyrido[3,2-e][1,2,4]triazolo[1,5-c]pyrimidin-5(6H)-one] the EC50 was 0.1 to 1 µM. Molecule COc1c(F)c(F)c(Cn2c(=O)n3ncnc3c3cc(CN4C[C@@H](C)O[C@@H](C)C4)cnc32)c(F)c1F [Example 146, 9-(((2S,6R)-2,6-Dimethylmorpholino)methyl)-6-(2,3,5,6-tetrafluoro-4-methoxybenzyl)pyrido[3,2-e][1,2,4]triazolo[1,5-c]pyrimidin-5(6H)-one] has an EC50 of 0.1 to 1 µM. For C[C@@H]1CN(Cc2cnc3c(c2)c2ncnn2c(=O)n3Cc2c(F)cc(Cl)cc2F)C[C@H](C)O1 [Example 147], the EC50 was < 0.1 µM. Cc1cc(Cn2c(=O)n3ncnc3c3cc(CN4C[C@@H](C)O[C@@H](C)C4)cnc32)cc(C)c1F [Example 148] was tested, and the EC50 was > 10 µM. Molecule C[C@@H]1CN(Cc2cnc3c(c2)c2ncnn2c(=O)n3Cc2ccc(F)c(F)c2F)C[C@H](C)O1 [Example 149, 9-(((2R,6S)-2,6-Dimethylmorpholino)methyl)-6-(2,3,4-trifluorobenzyl)pyrido[3,2-e][1,2,4]triazolo[1,5-c]pyrimidin-5(6H)-one] has an EC50 of 1 to 10 µM. C[C@@H]1CN(Cc2cnc3c(c2)c2ncnn2c(=O)n3Cc2cccc(Cl)c2Cl)C[C@H](C)O1 [Example 150] gave an EC50 of 0.1 to 1 µM. In the case of Cc1ccc(Cn2c(=O)n3ncnc3c3cc(CN4C[C@@H](C)O[C@@H](C)C4)cnc32)c(F)c1F [Example 151, 6-(2,3-Difluoro-4-methylbenzyl)-9-(((2R,6S)-2,6-dimethylmorpholino)methyl)pyrido[3,2-e][1,2,4]triazolo[1,5-c]pyrimidin-5(6H)-one], the EC50 was 0.1 to 1 µM. In the case of C[C@@H]1CN(Cc2cnc3c(c2)c2ncnn2c(=O)n3Cc2ccc(Cl)c(OC(F)(F)F)c2)C[C@H](C)O1 [Example 152], the EC50 was > 10 µM.
